Experimental data from article PMC4336329 (PLoS ONE, 2015).
Out of some 310,000 compounds screened, about 2,200 (0.71%) showed an effect of 50% or more. Effects have a minus sign here. Some of the results follow.

Target: human ether-à-go-go-related gene (hERG) potassium channel (human, UniProt Q12809)
Assay: primary screen, population patch clamp on CHO cells stably expressing hERG

Chain of human ether-à-go-go-related gene (hERG) potassium channel (Q12809 whole entry, looked up): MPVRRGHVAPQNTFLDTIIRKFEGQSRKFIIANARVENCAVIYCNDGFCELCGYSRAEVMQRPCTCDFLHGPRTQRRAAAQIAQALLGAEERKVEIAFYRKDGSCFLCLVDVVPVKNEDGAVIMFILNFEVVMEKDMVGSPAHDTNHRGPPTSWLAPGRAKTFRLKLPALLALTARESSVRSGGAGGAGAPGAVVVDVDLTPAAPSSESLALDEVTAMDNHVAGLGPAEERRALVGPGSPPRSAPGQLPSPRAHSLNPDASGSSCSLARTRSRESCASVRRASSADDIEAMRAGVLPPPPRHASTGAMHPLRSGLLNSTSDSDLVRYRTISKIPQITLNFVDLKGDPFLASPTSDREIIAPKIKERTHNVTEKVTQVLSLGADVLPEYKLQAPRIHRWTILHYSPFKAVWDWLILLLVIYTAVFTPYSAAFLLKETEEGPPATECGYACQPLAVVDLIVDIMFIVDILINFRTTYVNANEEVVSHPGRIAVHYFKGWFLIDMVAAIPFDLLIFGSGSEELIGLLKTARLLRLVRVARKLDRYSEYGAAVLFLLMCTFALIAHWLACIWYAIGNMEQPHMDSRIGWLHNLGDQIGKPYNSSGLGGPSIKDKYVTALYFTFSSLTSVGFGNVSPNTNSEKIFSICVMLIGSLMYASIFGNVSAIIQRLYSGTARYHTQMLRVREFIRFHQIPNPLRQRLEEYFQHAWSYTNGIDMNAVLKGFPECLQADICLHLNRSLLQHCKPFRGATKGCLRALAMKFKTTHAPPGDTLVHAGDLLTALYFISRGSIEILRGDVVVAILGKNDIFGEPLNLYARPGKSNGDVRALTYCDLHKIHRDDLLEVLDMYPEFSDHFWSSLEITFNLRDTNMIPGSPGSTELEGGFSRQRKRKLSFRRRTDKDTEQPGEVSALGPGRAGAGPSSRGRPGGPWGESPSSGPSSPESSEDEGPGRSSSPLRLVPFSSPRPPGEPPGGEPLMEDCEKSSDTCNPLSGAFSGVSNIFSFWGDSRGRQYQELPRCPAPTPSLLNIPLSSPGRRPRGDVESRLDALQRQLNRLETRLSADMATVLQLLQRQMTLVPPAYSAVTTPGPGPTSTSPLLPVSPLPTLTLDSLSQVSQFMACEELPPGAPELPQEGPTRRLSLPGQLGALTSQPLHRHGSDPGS

First: Cc1ccc(-c2nnc3ccc(SCC(=O)NCc4ccco4)nn23)cc1
Second: COCCn1c(SCC(=O)Nc2nnc(C)s2)nnc1-c1ccncc1
The “hERG current change (%, negative = inhibition) at 1uM” value of the first is higher: 4.96% for the first, -0.851% for the second.

First: O=C(CSc1ncn[nH]1)NCc1ccccc1
Second: C=CCN(CC(=O)NCc1ccccc1)C(=O)c1csnn1
The “hERG current change (%, negative = inhibition) at 1uM” value of the first is lower: 1.38% for the first, 9.02% for the second.

Compared with `COP(=S)(OC)c1c(C)nn(CCC#N)c1NC(=O)c1ccc(Cl)cc1`, `CCN(CC)C(=O)c1ccc(NC(=O)CN2CCc3cc(OC)c(OC)cc3C2)cc1` is lower in “hERG current change (%, negative = inhibition) at 1uM” value: 20.9% for the first, 11.7% for the second.

First: c1cc(-c2cc3cc(N4CCOCC4)ccc3o2)cs1
Second: CC1CC(C)CN(C(=O)COC(=O)c2cc([N+](=O)[O-])ccc2N2CCOCC2)C1 (stereo not shown)
The “hERG current change (%, negative = inhibition) at 1uM” value of the first is higher: 11.6% for the first, -21.1% for the second.

Compared with `COc1ccc(C(CNC(=O)c2ccc(NS(=O)(=O)c3ccc(F)c(C)c3)cc2)N(C)C)cc1` (stereo not shown), `COc1ccc(NC(=O)CCNS(=O)(=O)c2ccc(NC(C)=O)cc2)cc1Cl` is higher in “hERG current change (%, negative = inhibition) at 1uM” value: 13.6% for the first, 15.6% for the second.

Going from `O=C(Nc1cccc(S(=O)(=O)NC2=NCCCCC2)c1)C1COc2ccccc2O1` (stereo not shown) to `Cc1cc(C)cc(N(CC(=O)N/N=C/c2ccncc2)S(=O)(=O)c2ccccc2)c1`, the “hERG current change (%, negative = inhibition) at 1uM” value falls from 8.71% to -7.97%.

Compared with `CCc1cc2c(=O)n(CC(=O)NC3CCCCC3)cnc2s1`, `Cc1csc(SC(C)C(=O)NC2CCCCC2C)n1` (stereo not shown) is lower in “hERG current change (%, negative = inhibition) at 1uM” value: 12% for the first, 7.18% for the second.

Going from `CC(NC(=O)c1noc2c1CCCC2)c1ccccc1` (stereo not shown) to `O=C(CSc1nnc(-c2cccs2)o1)NCC1CN(Cc2ccccc2)CCO1` (stereo not shown), the “hERG current change (%, negative = inhibition) at 1uM” value rises from 1.11% to 11.7%.

Going from `O=C1CN(C(=O)c2cc([N+](=O)[O-])ccc2Cl)C(c2ccccc2)c2cc(F)ccc2N1` (stereo not shown) to `O=C1C(=O)N(Cc2cccnc2)C(c2cccc(F)c2)/C1=C(/O)c1ccc2c(c1)OCO2` (stereo not shown), the “hERG current change (%, negative = inhibition) at 1uM” value rises from 3.49% to 14.4%.

Going from `COc1ccc(C(=O)c2ccc([N+](=O)[O-])cc2)cc1S(=O)(=O)N1CCC(C(=O)O)CC1` to `CCOc1ccccc1NC(=O)CN1CCC(C(=O)c2ccc(OC)cc2)CC1`, the “hERG current change (%, negative = inhibition) at 1uM” value falls from 10.2% to -26.4%.

Compared with `CN(C)c1ccc(CN2CC=C(c3ccc(F)cc3)CC2)cc1`, `C[C@@H]1CC=C[C@H]2[C@H]1C(=O)N(Cc1ccccc1)[C@H]2c1ccc(F)c(-c2ccc(N(C)C)cc2)c1` is higher in “hERG current change (%, negative = inhibition) at 1uM” value: -45.6% for the first, 9.55% for the second.

Going from `Cc1ccc(Cn2c(Sc3nnc(C)s3)nc3c2c(=O)[nH]c(=O)n3C)cc1` to `Cc1sc2nc(CSCC(=O)Nc3cc(F)ccc3F)[nH]c(=O)c2c1C`, the “hERG current change (%, negative = inhibition) at 1uM” value rises from -11.2% to 15.2%.

Going from `COc1ccc(OC)c(Nc2ncnc3c2cnn3-c2cccc(C)c2)c1` to `COc1ccc(C2CC(=O)C3=C(C2)NC(C)=C(C(=O)Nc2ccccc2C)C3c2coc3ccc(C)cc3c2=O)cc1OC` (stereo not shown), the “hERG current change (%, negative = inhibition) at 1uM” value falls from 4.29% to 3.64%.

Compared with `Oc1cccc2cccnc12`, `O=c1c2ccccc2nc(/C=C/c2ccccn2)n1-c1ccccc1` is higher in “hERG current change (%, negative = inhibition) at 1uM” value: 9.98% for the first, 17.5% for the second.

First: Cc1cc(N2CC(C)OC(C)C2)nc(C(C)C)n1 (stereo not shown)
Second: COc1ccc(S(=O)(=O)NC(C)C)cc1-n1cnnn1
The “hERG current change (%, negative = inhibition) at 1uM” value of the first is lower: 5.19% for the first, 14.6% for the second.

First: CCCCN(C(=O)C(C)Oc1ccc(Br)cc1)c1c(N)n(CC(C)C)c(=O)[nH]c1=O (stereo not shown)
Second: CCCOc1ccc(N2C(=O)CC(SCCN)C2=O)cc1.Cl (stereo not shown)
The “hERG current change (%, negative = inhibition) at 1uM” value of the first is lower: -13.5% for the first, -3.2% for the second.

Compared with `CC(=O)[C@@]1(O)CC[C@H]2[C@@H]3CCC4=CC(=O)CC[C@]4(C)[C@H]3CC[C@@]21C`, `O=c1cc(N2CCN(c3cccc(Cl)c3)CC2)[nH]c(=O)n1C1CCCCC1` is lower in “hERG current change (%, negative = inhibition) at 1uM” value: 12.5% for the first, 5.48% for the second.

First: CC(C)CCN1CCC(Cc2ccccc2)(NC(=O)c2ccccc2)C1=O (stereo not shown)
Second: CC1(c2ccccc2)NC(=O)N(CC(=O)NNC(=O)c2ccccc2)C1=O (stereo not shown)
The “hERG current change (%, negative = inhibition) at 1uM” value of the first is lower: 6.45% for the first, 8.93% for the second.

First: O=C(Nc1nc2ccsc2c(=O)s1)c1ccc(F)cc1
Second: Cc1ccn(CC(=O)NC2CC(C)(C)Cc3c2cnn3-c2ccc(F)cc2)n1 (stereo not shown)
The “hERG current change (%, negative = inhibition) at 1uM” value of the first is higher: 6.15% for the first, 2.83% for the second.

Going from `CC(C)c1ccc(N2C(=O)CC(Sc3nc4ccccc4o3)C2=O)cc1` (stereo not shown) to `O=C(NCc1ccccc1)C(c1ccc(O)cc1)N(C(=O)c1cnccn1)c1ccccc1` (stereo not shown), the “hERG current change (%, negative = inhibition) at 1uM” value rises from 5.96% to 10.8%.

Compared with `COc1ccccc1CC(=O)N1CCCC(CCC(=O)NCc2ccccc2F)C1` (stereo not shown), `Cc1ccc(OCCC(=O)OCC(=O)NCCc2ccc(Cl)cc2)cc1` is higher in “hERG current change (%, negative = inhibition) at 1uM” value: 7.54% for the first, 16.1% for the second.

`C(/CCc1ccccc1)=N\n1cnnc1` was tested, and the “hERG current change (%, negative = inhibition) at 1uM” value was 14.2%.
